What all share (test): Primary Screen for Target Class Profiling of Small Molecule Inhibitors of Methyltransferases
The target in test [1] is Glycine N-methyltransferase (Homo sapiens) (UniProt Q14749). The conditions noted are these: purified enzyme, MTase-Glo SAH luminescence; measured here: GNMT inhibition; at 40 µM; stronger effect = lower value. A digest of the protocol:
(§1)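 Each enzyme was assayed with SAM and its substrate. SAH formation detected by MTase-Glo luminescence; single-point 40 uM screen[…].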

Test [2] deals with Guanidinoacetate N-methyltransferase (Homo sapiens) (UniProt Q14353). The conditions noted are these: purified enzyme, MTase-Glo SAH luminescence; measured here: GAMT inhibition; at 40 µM; stronger effect = lower value. A digest of the protocol:
as §1

Test [3] has as its target Histamine N-methyltransferase (Homo sapiens) (UniProt P50135). Conditions: purified enzyme, MTase-Glo SAH luminescence; measured here: HNMT inhibition; at 40 µM; stronger effect = lower value. In a few lines: as §1
The target of test [4] is Nicotinamide N-methyltransferase (Homo sapiens) (UniProt P40261). The conditions noted are these: purified enzyme, MTase-Glo SAH luminescence; measured here: NNMT inhibition; at 40 µM; stronger effect = lower value. A digest of the protocol: as §1
Test [5] addresses Phenylethanolamine N-methyltransferase (Homo sapiens) (UniProt P11086). Conditions: purified enzyme, MTase-Glo SAH luminescence; measured here: PNMT inhibition; at 40 µM; stronger effect = lower value. In a few lines: as §1

The other results are listed elsewhere or left out. Further columns of the screen follow, without active or inactive calls.
% is set by controls: 0 for no effect and ±100 for the full control effect.

With `CC1CCCC(NC(=O)C2(C)Cn3c(ccc3-c3ccco3)C(=O)N2Cc2cccs2)C1C` (stereo not given), the activity change, negative = inhibition is 1.73% in test [1]; 0% in test [2]; 4.61% in test [3]; -11.1% in test [4]; 1.31% in test [5].
With `CC1(C(=O)NC2CCCCC2)Cn2nc(-c3ccco3)cc2C(=O)N1Cc1ccco1` (stereo not given), the activity change, negative = inhibition in test [1] was -7.64%; in test [2], 2.7%; in test [3], -4.78%; in test [4], -3.26%; in test [5], -4.61%.
Consider `Nc1nc(CCC(=O)N[C@@H]2[C@@H](Cc3ccccc3)[C@H]3OCC[C@@H]23)cs1`, for which the activity change, negative = inhibition is -4.45% in test [1]; -5.34% in test [2]; -1.5% in test [3]; -8.85% in test [4]; -8.94% in test [5].
Taken in the same sequence, the figures for `CCCn1c(=O)c2ccc(C(=O)NC3CCCC3)cc2n2c(=O)n(CC(=O)NC3CCCC3)nc12` were 5.68%, 0%, 11.1%, 1.52% and 3.27%.
Consider `Cc1noc(C)c1CC(=O)N1CCCn2ccnc2C1c1ccccc1` (stereo not given), for which the activity change, negative = inhibition in test [1] was 2.24%; in test [2] it was -2.13%; in test [3] it was -0.362%; in test [4], -1.45%; in test [5], -10.8%.
Taken in the same sequence, the figures for `COc1ccccc1CN1C(=O)c2nc3ccccc3n2CC1(C)C(=O)NC1CCCCCC1` (stereo not given) were -4.14%, 3.18%, 1.32%, -11.5% and -5%.
For `C[C@@H]1CN(C(=O)c2cccc(N3CCNC3=O)c2)C[C@@]1(O)C1CC1`, the activity change, negative = inhibition was -4.75% in test [1]; -6.84% in test [2]; -2.56% in test [3]; -7.84% in test [4]; -3.12% in test [5].
For `COCCCNc1nc2c(-c3cccc(C)c3)nnn2c2ccccc12`, the activity change, negative = inhibition in test [1] was -6.62%; in test [2], 4.56%; in test [3] it was -0.417%; in test [4], 1.92%; in test [5] it was -5.86%.
Regarding `CN1CCN(C(=O)N2CCC3(CCCN(C4CCCC4)C3=O)C2)CC1` (stereo not given), the activity change, negative = inhibition in test [1] was -4.01%; in test [2] it was -6.93%; in test [3], -1.07%; in test [4], -11.6%; in test [5], -7.53%.
Taken in the same sequence, the figures for `COCC(=O)NC[C@H]1CCN(Cc2ccccn2)C[C@H]1N(C)C` were -4.51%, -7.14%, -0.633%, -14.9% and -7.27%.
For `C[C@@H]1O[C@@H](O[C@H]2[C@H](OC(=O)[C@]34CCC(C)(C)C[C@H]3C3=CCC5[C@@]6(C)C[C@H](O)[C@H](O[C@@H]7O[C@H](C(=O)O)[C@@H](O)[C@H](O)[C@H]7O)[C@@](C)(CO)C6[C@H](O)C[C@@]5(C)[C@]3(C)C[C@H]4O)O[C@@H](CO)[C@@H]2O)[C@H](O)[C@H](O)[C@H]1O[C@@H]1OC[C@@H](O)[C@H](O[C@H]2OC[C@](O)(CO)[C@H]2O)[C@H]1O` (stereo not given in full), the activity change, negative = inhibition in test [1] is -2.29%; in test [2], -6.66%; in test [3] it was 2.89%; in test [4] it was -13.9%; in test [5], 0.641%.
For `O=C1NCCOCCCN(S(=O)(=O)c2cccs2)[C@H]2CCCC[C@@H]12`, the activity change, negative = inhibition in test [1] is -4.73%; in test [2], -6.9%; in test [3], -2.55%; in test [4] it was -12.1%; in test [5], -12%.
As for `COC[C@@H]1CN(Cc2cnn(C(C)C)c2)C[C@H]1C(=O)NC1CC1`, the activity change, negative = inhibition in test [1] amounted to 0.271%; in test [2], 0.266%; in test [3], 0.662%; in test [4], 1.66%; in test [5], 0.386%.
On the same counts, the results for `COc1ccc(-c2nc3c(c(=O)[nH]2)CCN(C(=O)Nc2ccccc2Cl)C3)cc1` are -19.8%, -3.51%, -5.74%, -9.16% and 8.54%.
On to `O=S(=O)(c1ccc(S(=O)(=O)n2cnc3ccccc32)cc1)N1CCCCCC1`, for which the activity change, negative = inhibition in test [1] was 2.19%; in test [2], 2.35%; in test [3], -2.22%; in test [4] it was -17.9%; in test [5] it was -8.06%.
For `CCN1CCc2nc(N)oc2CC1`, the activity change, negative = inhibition in test [1] is -14.8%; in test [2], 12.2%; in test [3], -29.1%; in test [4], -1.42%; in test [5], 2.87%.
Taken in the same sequence, the figures for `O=C(O)C(O[C@@H]1O[C@H](CO[C@@H]2O[C@H](CO)[C@@H](O)[C@H](O)[C@H]2O)[C@@H](O)[C@H](O)[C@H]1O)c1ccccc1` (stereo not given in full) were 0%, 6.17%, 10.2%, -2.1% and 5.68%.
With `CCC(C)/C=C(C)/C=C/C1=CC2=C(Cl)C(=O)C(C)(OC(C)=O)C(=O)C2=CN1C(CCCN=C(N)N)C(=O)O` (stereo not given), the activity change, negative = inhibition in test [1] was -5.91%; in test [2], 3.43%; in test [3] it was 4.94%; in test [4], -9.4%; in test [5], -5.76%.
Consider `CCCNC(=O)N1CCCC(c2nc(CCOc3ccc(F)cc3)no2)C1` (stereo not given), for which the activity change, negative = inhibition in test [1] is -2.35%; in test [2], 2.06%; in test [3], -0.213%; in test [4], -1.27%; in test [5], 0.058%.
On the same counts, the results for `O=S(=O)(c1ccccc1)c1nnn2c1nc(N1CCCC1)c1cc(Cl)ccc12` are -2.33%, 0%, 3.67%, -6.9% and -2%.
For `CCc1cc2c(cc3n2CC(C)(C(=O)NC2CCC(C)CC2)N(Cc2ccc(Cl)cc2)C3=O)s1` (stereo not given), the activity change, negative = inhibition in test [1] is 4.32%; in test [2], -0.214%; in test [3], 5.99%; in test [4] it was 4.14%; in test [5] it was 2.7%.
On the same counts, the results for `CC1(C)OC(=O)C=C[C@@]2(C)C1CC(=O)[C@]1(C)C2CC[C@@]2(C)[C@H](c3ccoc3)OC(=O)[C@H]3O[C@]321` (stereo not given in full) are -0.569%, -1.81%, 2.28%, -17% and 0.039%.
On to `C=C(COC(=O)C(O)C(O)CN)C12OC1C1(C)C(=CC2=O)C(O)C(O)CC1C` (stereo not given), for which the activity change, negative = inhibition in test [1] amounted to 0%; in test [2] it was 16.3%; in test [3], 10%; in test [4] it was 1.66%; in test [5], 6.78%.
Turning to `CC(=O)N1CC2(CCCN2Cc2cccc(C(N)=O)c2)Cc2ccccc21` (stereo not given), the activity change, negative = inhibition in test [1] is -8.78%; in test [2], -6.85%; in test [3], -9.24%; in test [4] it was -12.4%; in test [5], -10.2%.
Taken in the same sequence, the figures for `COC(=O)c1ncn2c1C(=O)N(Cc1ccc(C)cc1)C(C)(C(=O)NC1CCCCCC1)C2` (stereo not given) were 7.92%, 4.2%, 8.01%, 8.87% and 6.79%.
Turning to `CCC(C)NC(=O)c1ccc2c(=O)n(C)c3nnc(SCc4cccc(F)c4)n3c2c1` (stereo not given), the activity change, negative = inhibition in test [1] was 6.87%; in test [2] it was 0%; in test [3] it was 6.29%; in test [4], 9.88%; in test [5], 3.71%.
Taken in the same sequence, the figures for `CC1(C(=O)NC2CCCCC2)Cn2c(nc3ccccc32)C(=O)N1Cc1cccnc1` (stereo not given) were -2.92%, 4.76%, -0.52%, -0.605% and -0.98%.
Turning to `C[N+](C)(C)CCOC(=O)CCC(=O)OCC[N+](C)(C)C`, the activity change, negative = inhibition is 0.064% in test [1]; 11.1% in test [2]; 2.08% in test [3]; -4.95% in test [4]; 8.34% in test [5].
